Data: the supplement of paper PMC10724272
MIC of invasive clinical C. tropicalis isolates, CLSI broth microdilution (fluconazole 0.12-256 mg/L, up to 1,024 for the azole-resistant cluster and its neighbour group; other ranges not stated); higher = less susceptible. Call: susceptible or wild type [S] / resistant or non-wild type [R] by CLSI breakpoints or cut-offs; intermediate and dose-dependent carry no call. '<=' and '>=' at the end values are inferred; the source marks only some of them. Isolates are numbered anew.

How the values were obtained:
Assay in all cases: CLSI broth microdilution.
amphotericin B = compound: C[C@@H]1[C@H](O)[C@@H](C)/C=C/C=C/C=C/C=C/C=C/C=C/C=C/[C@H](O[C@@H]2O[C@H](C)[C@@H](O)[C@H](N)[C@@H]2O)C[C@@H]2O[C@](O)(C[C@@H](O)C[C@@H](O)[C@H](O)CC[C@@H](O)C[C@@H](O)CC(=O)O[C@H]1C)C[C@H](O)[C@H]2C(=O)O [amphotericin B]
fluconazole = compound: OC(Cn1cncn1)(Cn1cncn1)c1ccc(F)cc1F [fluconazole]
itraconazole = compound: CCC(C)n1ncn(-c2ccc(N3CCN(c4ccc(OCC5COC(Cn6cncn6)(c6ccc(Cl)cc6Cl)O5)cc4)CC3)cc2)c1=O [itraconazole]
caspofungin = compound: CC[C@H](C)C[C@H](C)CCCCCCCCC(=O)N[C@H]1C[C@@H](O)[C@@H](NCCN)NC(=O)[C@@H]2[C@@H](O)CCN2C(=O)[C@H]([C@H](O)CCN)NC(=O)[C@H]([C@H](O)[C@@H](O)c2ccc(O)cc2)NC(=O)[C@@H]2C[C@@H](O)CN2C(=O)[C@H]([C@@H](C)O)NC1=O [caspofungin]
anidulafungin = compound: CCCCCOc1ccc(-c2ccc(-c3ccc(C(=O)N[C@H]4C[C@@H](O)[C@@H](O)NC(=O)[C@@H]5[C@@H](O)[C@@H](C)CN5C(=O)[C@H]([C@@H](C)O)NC(=O)[C@H]([C@H](O)[C@@H](O)c5ccc(O)cc5)NC(=O)[C@@H]5C[C@@H](O)CN5C(=O)[C@H]([C@@H](C)O)NC4=O)cc3)cc2)cc1 [anidulafungin]
micafungin = compound: CCCCCOc1ccc(-c2cc(-c3ccc(C(=O)N[C@H]4C[C@@H](O)[C@@H](O)NC(=O)[C@@H]5[C@@H](O)[C@@H](C)CN5C(=O)[C@H]([C@H](O)CC(N)=O)NC(=O)[C@H]([C@H](O)[C@@H](O)c5ccc(O)c(OS(=O)(=O)O)c5)NC(=O)[C@@H]5C[C@@H](O)CN5C(=O)[C@H]([C@@H](C)O)NC4=O)cc3)no2)cc1 [micafungin]
flucytosine = compound: Nc1[nH]c(=O)ncc1F [flucytosine]
posaconazole = compound: CC[C@@H]([C@H](C)O)n1ncn(-c2ccc(N3CCN(c4ccc(OC[C@@H]5CO[C@@](Cn6cncn6)(c6ccc(F)cc6F)C5)cc4)CC3)cc2)c1=O [posaconazole]
voriconazole = compound: C[C@@H](c1ncncc1F)[C@](O)(Cn1cncn1)c1ccc(F)cc1F [voriconazole]

Test System	MIC (amphotericin B)	MIC (fluconazole)	MIC (itraconazole)	MIC (caspofungin)	MIC (anidulafungin)	MIC (micafungin)	MIC (flucytosine)	MIC (posaconazole)	MIC (voriconazole)
Candida tropicalis isolate 270 (ERG11 copies: 2, Erg11p: no key change)	0.5 mg/L [S]	1 mg/L [S]	0.12 mg/L [S]	0.12 mg/L [S]	0.12 mg/L [S]	0.06 mg/L [S]	≤ 0.06 mg/L [S]	0.12 mg/L [S]	0.12 mg/L [S]
Candida tropicalis isolate 271 (ERG11 copies: 2, Erg11p: no key change)	0.5 mg/L [S]	0.5 mg/L [S]	0.03 mg/L [S]	0.03 mg/L [S]	≤ 0.015 mg/L [S]	0.03 mg/L [S]	≤ 0.06 mg/L [S]	0.03 mg/L [S]	0.03 mg/L [S]
Candida tropicalis isolate 272 (ERG11 copies: 2, Erg11p: no key change)	1 mg/L [S]	128 mg/L [R]	≥ 16 mg/L [R]	0.06 mg/L [S]	0.06 mg/L [S]	0.015 mg/L [S]	≤ 0.06 mg/L [S]	≥ 8 mg/L [R]	≥ 8 mg/L [R]
Candida tropicalis isolate 273 (ERG11 copies: 2, Erg11p: no key change)	1 mg/L [S]	0.5 mg/L [S]	0.06 mg/L [S]	0.03 mg/L [S]	0.06 mg/L [S]	0.03 mg/L [S]	≤ 0.06 mg/L [S]	0.06 mg/L [S]	0.03 mg/L [S]
Candida tropicalis isolate 274 (ERG11 copies: 2, Erg11p: no key change)	1 mg/L [S]	2 mg/L [S]	0.25 mg/L [S]	0.03 mg/L [S]	0.12 mg/L [S]	0.06 mg/L [S]	≤ 0.06 mg/L [S]	0.25 mg/L [S]	0.25 mg/L
Candida tropicalis isolate 275 (ERG11 copies: 2, Erg11p: Y132F, S154F (heterozygous))	1 mg/L [S]	16 mg/L [R]	0.25 mg/L [S]	0.03 mg/L [S]	0.03 mg/L [S]	0.03 mg/L [S]	≤ 0.06 mg/L [S]	0.25 mg/L [S]	1 mg/L [R]
Candida tropicalis isolate 276 (ERG11 copies: 7, Erg11p: Y132F, S154F (heterozygous))	1 mg/L [S]	512 mg/L [R]	0.5 mg/L [S]	0.06 mg/L [S]	0.25 mg/L [S]	0.06 mg/L [S]	≤ 0.06 mg/L [S]	1 mg/L [R]	≥ 8 mg/L [R]
Candida tropicalis isolate 277 (ERG11 copies: 2, Erg11p: no key change)	0.5 mg/L [S]	1 mg/L [S]	0.12 mg/L [S]	0.06 mg/L [S]	0.12 mg/L [S]	0.06 mg/L [S]	0.12 mg/L [S]	0.12 mg/L [S]	0.06 mg/L [S]
Candida tropicalis isolate 278 (ERG11 copies: 2, Erg11p: no key change)	1 mg/L [S]	4 mg/L	≥ 16 mg/L [R]	0.03 mg/L [S]	0.12 mg/L [S]	0.03 mg/L [S]	≤ 0.06 mg/L [S]	≥ 8 mg/L [R]	0.5 mg/L
